Measurements published in PubChem BioAssay AID686978 (National Center for Advancing Translational Sciences (NCATS), 2013).
Several values for one entry are separate records, joined by “and”; a condition that tells them apart may be missing. Equal values may be shown once. In all, about 420,000 compounds went through this assay and about 64,000 (15%) were called active. The shares of active, inactive and inconclusive entries below differ from those in the screen. The call rests on the fitted dose curve; in most records, active means well fitted inhibition curve with a large enough effect; inconclusive means small, poorly fitted or top-dose-only effect; inactive means flat fitted curve, though single readings scatter. Potencies beside an inconclusive call are fits to weak or partial responses and may not hold up.

Assay: qHTS for Inhibitors of human tyrosyl-DNA phosphodiesterase 1 (TDP1): qHTS in cells in absence of CPT; further: nearly all actives have a fitted effect of over 55% in size
Conditions: DT40 Tdp1-/- hTDP1 cells, no CPT, ATP luminescence, 48 h; activity change, negative = growth inhibition: at 46.2 µM (top of the series) unless noted
In short: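 DT40 Tdp1-/-;hTDP1 cells, no CPT (DMSO vehicle only), 400 cells/well; compounds pin-transferred; ≥48 hr, 37 °C; CellTiter-Glo 30 min RT dark, luminescence read.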
On the % scale 0 is the no-effect control and ±100 the full control effect; potency means the concentration at half of the fitted maximal effect; tags describe the fitted curve by direction and shape.

Compound	Potency	activity change, negative = growth inhibition
Cc1cc(C(=O)CN2C(=O)NC(Cc3c[nH]c4ccccc34)C2=O)c(C)n1C (centres undefined)	inconclusive: 18.4 µM [inhibitor, single point]	
CCN(CC(=O)NCc1cccs1)C(=O)c1ccc([N+](=O)[O-])o1		inactive: -14.1%
COC(=O)COc1ccc(-c2nccc(-c3ccc(Br)cc3)n2)cc1	inconclusive: 18.4 µM [inhibitor, single point]	
CC1(Oc2ccc(CC#N)cc2)CCN(Cc2ccccc2OC(F)F)C1 (centres undefined)		inactive: -27.4%
O=C1c2cccc(Sc3ccccc3)c2C(=O)c2c(Sc3ccccc3)cccc21		inactive: -0.491%
COc1nc(N2CCCC2)nc(-n2nnc(C(C)=O)c2C)n1	inconclusive: 0.461 µM [inhibitor, partial curve, poor fit]	
COC(=O)[C@@]12C[C@@H](CC(=O)NCc3cccc4ccccc34)C(=O)N(CCc3ccc(OC)c(OC)c3)C1=CCC(C)(C)C2	inconclusive: 29.1 µM [inhibitor, single point]	
CS(=O)(=O)c1nc(S(=O)(=O)c2ccc(Cl)cc2)c(NCc2ccccn2)s1	inconclusive: 16.4 µM [inhibitor, partial curve, poor fit]	
COc1ccc(CN2CCOc3ccc(CN4CCN(CCO)CC4)cc3C2)c2ccccc12	inconclusive: 18.4 µM [inhibitor, single point]	
COC(=O)c1ccc(NC(=O)CN2CCN(c3ccccn3)CC2)cc1		inactive: 3.3%
COc1cccc(C2c3[nH]c4ccccc4c3CCN2C(=O)c2ccccc2F)c1OC (centres undefined)		inactive: -96.6%
Cc1cccc(OCC(=O)NCCCNC(=O)c2ccc(C)nc2)c1		inactive: -0.381%
CCNC(=S)N1CCN(C(c2ccccc2)c2ccccc2)CC1	inconclusive: 20.6 µM [inhibitor, single point]	
CCOc1ccc2[nH]c(=O)c(CN(Cc3cccs3)Cc3nnnn3C(C)(C)CC)cc2c1	active: 15.8 µM	
CCc1ccc(S(=O)(=O)Nc2ccc3oc(C)c(C(=O)OCCOC)c3c2)cc1	inconclusive: 29.1 µM [inhibitor, single point]	
O=C(Cn1cc(-c2nnnn2-c2ccc(Cl)cc2)c(=O)c2ccccc21)c1ccccc1	inconclusive: 11.6 µM [inhibitor, single point]	
CCC(O)(CC)C(=O)N=Nc1c(O)[nH]c2ccccc12		inactive: 7.45%
O=C(Cc1ccccc1)Nc1nc(-c2ccc(F)c(F)c2)cs1	inconclusive: 0.0073 µM [inhibitor, full curve, poor fit]	
CN(C)S(=O)(=O)c1ccc(N2CCCC2)c(C(=O)OCC(=O)NC2(C#N)CCCCC2)c1		inactive: -9.08%
Cc1cccc(NC(=O)c2cc3c(C)nn(-c4ccccc4)c3s2)c1	inconclusive: 29.1 µM [inhibitor, single point]	
Cc1ccc2nc(NC(=O)C(NS(=O)(=O)c3cccc4nsnc34)C(C)C)sc2c1 (centres undefined)	inconclusive: 29.1 µM [inhibitor, single point]	
CCOC(=O)C1=NN(C(=O)Nc2cccc(C(F)(F)F)c2)C2C(=O)N(c3cccc(C(F)(F)F)c3)C(=O)C12 (centres undefined)		inactive: 1.15%
Cc1c(NC(=O)CSc2nnc(-c3ccccc3F)o2)c(=O)n(-c2ccccc2)n1C		inactive: 0.554%

Compound	Potency	activity change, negative = growth inhibition
COC(=O)/C=C1\OCc2cc(OCc3ccccc3)ccc21	inconclusive: 23.1 µM [inhibitor, single point]	
O=C(CSc1ccc(Cl)cc1)Nc1ccc(N2CCN(c3ccccc3)CC2)c(F)c1	inconclusive: 5.17 µM [inhibitor, full curve, poor fit]	
CC(=O)N(Cc1ccc(Br)cc1)c1cccc(C)c1C	inconclusive: 16.4 µM [inhibitor, partial curve, poor fit]	
C=CCc1ccc(OCCCCN2CC(C)OC(C)C2)c(OC)c1 (centres undefined)	inconclusive: 23.1 µM [inhibitor, partial curve]	
COc1cc(OC)c(NC(=O)c2sc3ncn(CC(=O)N4CCN(c5ccccn5)CC4)c(=O)c3c2C)cc1Cl	inconclusive: 2.31 µM [inhibitor, full curve]	
CC1(C(=O)Nc2ccc(Cl)c(C(F)(F)F)c2)Cc2c(-c3ccccc3)ccnc2O1 (centres undefined)	inconclusive: 29.1 µM [inhibitor, single point]	
CCCC1=Nc2cc(C(=O)NCCN3CCCC3)ccc2Sc2ccccc21	inconclusive: 20.6 µM [inhibitor, partial curve]	
O=C(/C=C/c1cccc([N+](=O)[O-])c1)NCCSc1ccccc1	inconclusive: 32.6 µM [inhibitor, single point]	
COCCOc1cc(NC(=O)c2sccc2Oc2ccc([N+](=O)[O-])cc2F)c(Cl)cc1Cl	active: 18.4 µM	
Oc1ccc(CCNc2ncnc3ccc(Cl)cc23)cc1	active: 2.31 µM	
COc1cc(/C=C(\C#N)C(=O)NCC2CCCO2)c([N+](=O)[O-])cc1OC (centres undefined)	inconclusive: 25.9 µM [inhibitor, single point]	
Cc1cc2oc3c(c(=O)c2cc1C)C(c1cccc(Br)c1)N(Cc1ccco1)C3=O (centres undefined)	inconclusive: 20.6 µM [inhibitor, single point]	
C=CCNC(=O)c1onc(CSc2ccc(F)c(F)c2)c1C(=O)NCC=C		inactive: 3.5%
Cc1cccc(-c2sc(Nc3ccccc3)n[n+]2-c2ccc(F)cc2)c1	active: 9.2 µM	
Nc1nc2ccccc2n1C(=O)CCc1ccccc1	active: 18.4 µM	
CCN(c1ccc(OC)cc1)S(=O)(=O)c1cc(-c2cc(C)no2)ccc1C(C)C	active: 20.6 µM	
O=C(CCS(=O)(=O)c1ccc(Cl)cc1)NC1CCCC1		inactive: 10%
CCn1c(SCC(=O)Nc2ccc(C)cc2)nnc1-c1ccccn1		inactive: -12.6%
CCCCN(c1ccccc1)S(=O)(=O)c1cc2c3c(c1)C(C)C(=O)N3CCC2 (centres undefined)	active: 29.1 µM	
CC1=C(C(=O)OCC2CCCO2)C(c2ccc(F)cc2)NC(=O)N1 (centres undefined)		inactive: -7.63%
CCC(C)N1CCN(S(=O)(=O)c2ccc3ccccc3c2)CC1 (centres undefined)		inconclusive: -35% [inhibitor]
CC(C)Oc1cccc(C(=O)C2CCCN(Cc3cnc(N4CCCC4)s3)C2)c1 (centres undefined)	inconclusive: 29.1 µM [inhibitor, single point]	
CCOC(=O)C1CCCN(S(=O)(=O)c2cc(Br)cc3c2N(C(=O)CC)CC3)C1 (centres undefined)	inconclusive: 23.1 µM [inhibitor, single point] and inconclusive: 14.6 µM [inhibitor, single point]	

Compound	Potency	activity change, negative = growth inhibition
CC(C)C[C@H](NC(=O)C1CC(=O)N(c2ccc3c(c2)OCCO3)C1)C(=O)N1CCCCC1 (some centres undefined)		inactive: 11.6%
Cc1ccc2nc(-c3ccccn3)cc(C(=O)NCCc3ccc(F)cc3)c2c1	active: 20.6 µM	
COc1ccc(NC(=S)N2CCN(CCN3C(=O)c4cccc5cccc(c45)C3=O)CC2)cc1	inconclusive: 20.6 µM [inhibitor, single point]	
Clc1ccc(CNCc2cccs2)c(Cl)c1		inactive: -27.8%
Cc1ccn2c(=O)c(NC(=O)c3cccc([N+](=O)[O-])c3C)c(C)nc2c1	active: 18.4 µM	
O=C(CSc1nc2ccccc2c(=O)n1-c1ccc(F)cc1F)c1c[nH]c2ccccc12	inconclusive: 16.4 µM [inhibitor, single point]	
CC(c1ccccc1)N1CCc2[nH]c(=S)[nH]c(=O)c2C1 (centres undefined)		inactive: -9.34%
COc1ccc(OC)c(/C=C/C(=O)OCC(=O)NC2CCCCCCC2)c1	inconclusive: 18.4 µM [inhibitor, single point]	
CCCn1nnnc1NC(=O)c1ccc2ccccc2c1	active: 18.4 µM	
CCN(CCCNC(=O)CN1N=C(c2ccc(C)cc2)CCC1=O)c1ccccc1	active: 23.1 µM	
COCCN(C(=O)COC(=O)/C=C/c1ccc(C(F)(F)F)cc1)c1c(N)n(Cc2ccccc2)c(=O)[nH]c1=O	active: 20.6 µM	
O=C(NCc1ccncc1)Nc1ccc(Cc2ccc(NC(=O)NCc3ccncc3)cc2)cc1	active: 10.3 µM	
Cc1ccc(C(OCC(C)(C)C[N+](C)(C)C)c2ccccc2)cc1 (centres undefined)	active: 5.17 µM	
Cc1ccc(CN2CC(C(=O)NCCCSc3ccccc3)CC2=O)cc1 (centres undefined)	inconclusive: 29.1 µM [inhibitor, single point]	
Fc1ccc(-n2ncc3c(NCCCc4ccccc4)ncnc32)cc1	inconclusive: 29.1 µM [inhibitor, single point]	
CCOC(=O)C1CCCN(C(=O)Cn2nc(C)n3nc(-c4ccccc4)cc3c2=O)C1 (centres undefined)	inconclusive: 20.6 µM [inhibitor, single point]	
CC(C)(C)C(=O)Nc1nnc(CSCc2ccccc2F)s1	inconclusive: 29.1 µM [inhibitor, single point]	
O=C(CCn1ccnc1)Nc1cc(Cl)ccc1O	inconclusive: 1.84 µM [inhibitor, partial curve]	
CSCCC(NC(=O)C1CCC(C)CC1)C(=O)N1CCN(c2ccccn2)CC1 (centres undefined)		inconclusive: -31% [inhibitor]
COc1ccc(-n2nnc3c(=O)n(CC(=O)N4CCC(Cc5ccccc5)CC4)cnc32)cc1	inconclusive: 23.1 µM [inhibitor, single point]	
CCc1ccc(-n2c(CSc3nnnn3-c3ccccc3)nc3ccccc3c2=O)cc1	active: 18.4 µM	
O=C(c1cc(N2C(=O)C3C4CCC(C4)C3C2=O)ccc1Cl)N1CCN(c2ccc(F)cc2)CC1 (centres undefined)	inconclusive: 20.6 µM [inhibitor, partial curve, poor fit]	
Cc1ccc(/C=c2\s/c(=C(/C#N)C(=O)N3CCCC3)n(Cc3ccco3)c2=O)s1	inconclusive: 29.1 µM [inhibitor, single point]	
